Source: PubChem BioAssay AID1030 (National Center for Advancing Translational Sciences (NCATS), 2008)
About 16,000 (7.3%) of roughly 220,000 compounds were called active. This list was built around the results that the source calls inconclusive (neither active nor inactive); the mix of calls is not that of the screen. Calls follow the shape of the dose curve; as a rule, active = well fitted inhibition curve with a large enough effect (not every such curve was filed as active); inconclusive = small, poorly fitted or top-dose-only effect, or another doubt; inactive = no such curve, though single readings can be large or run the other way. No potency is given beside an inconclusive call; the fits are too rough.

Biological target: Aldehyde dehydrogenase 1A1 (Homo sapiens) (UniProt P00352)
UniProt P00352, sequence (P00352 whole entry, looked up): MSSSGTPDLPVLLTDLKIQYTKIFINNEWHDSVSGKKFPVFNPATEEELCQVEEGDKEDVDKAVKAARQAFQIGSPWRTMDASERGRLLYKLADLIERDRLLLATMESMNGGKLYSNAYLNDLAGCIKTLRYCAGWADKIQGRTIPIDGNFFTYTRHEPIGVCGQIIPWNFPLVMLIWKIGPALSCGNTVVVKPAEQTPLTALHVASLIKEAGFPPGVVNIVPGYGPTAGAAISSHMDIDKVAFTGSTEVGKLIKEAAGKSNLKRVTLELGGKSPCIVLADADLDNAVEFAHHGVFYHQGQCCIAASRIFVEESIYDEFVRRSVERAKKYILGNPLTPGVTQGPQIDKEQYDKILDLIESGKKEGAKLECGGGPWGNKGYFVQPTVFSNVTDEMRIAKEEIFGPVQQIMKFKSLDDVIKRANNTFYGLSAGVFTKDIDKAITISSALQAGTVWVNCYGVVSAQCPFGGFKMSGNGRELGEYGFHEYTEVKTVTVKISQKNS
Assay: qHTS Assay for Inhibitors of Aldehyde Dehydrogenase 1 (ALDH1A1);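 as to activity, negative = inhibition: plate controls were no enzyme wells and a reference inhibitor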
Conditions: Purified ALDH1A1, NADH fluorescence, propionaldehyde substrate; series mostly up to 75.3 µM; activity, negative = inhibition: at the top concentration
Potency is read from the fitted curve at half-maximal effect; tags tell the direction and shape of the fitted curve.

| Compound | activity, negative = inhibition | Potency |
| --- | --- | --- |
| CC(C)OCCCNc1ncc2c(n1)CC(c1cccs1)CC2=O (stereo not given) | inactive: -0.562% |  |
| O=C(COc1ccccc1)NCC(=O)N/N=C/c1cccs1 |  | active: 22.4 µM |
| CC(=O)Nc1nc(NC(C)=O)c2[nH]c(CO)nc2n1 | inactive: 13.6% [at 13.5 µM] |  |
| CC(=O)c1c(C)n(C)c2ccc(OC(=O)c3ccco3)cc12 |  | inconclusive [inhibitor, single point] |
| Cc1ccc(C)c(S(=O)(=O)N2CC(=O)N(CCc3ccccc3)C(=O)C2)c1 |  | inconclusive [inhibitor, full curve, poor fit] |
| Cc1ccc(/C=N/NC(=O)Cn2ccc(C(F)(F)F)n2)o1 | inactive: 2.52% |  |
| CCC(C)NC(=O)CNC(=S)N(Cc1ccccc1F)C1CCCCC1 (stereo not given) |  | active: 10 µM |
| Cn1c(C(=O)N2CCN(C(=O)c3ccco3)CC2)cc2c(=O)n3ccccc3nc21 |  | inconclusive [inhibitor, full curve] |
| N#Cc1sc2nc(-c3ccccc3)cc(-c3ccco3)c2c1N | inactive: -8.62% |  |
| CCn1c(SCC(=O)NCc2ccco2)nc2c(c1=O)SC(C)C2 (stereo not given) |  | inconclusive [inhibitor, single point] |
| Cc1ccccc1COc1ccc(/C(O)=C2/C(=O)C(=O)N(CCCn3ccnc3)C2c2ccco2)cc1 (stereo not given) |  | active: 11.2 µM |
| COc1ccc(OC)c(NC(=O)CSc2nnnn2-c2ccccc2F)c1 |  | inconclusive [inhibitor, partial curve] |
| CCOC(=O)C(=O)/C(=C\N(C)C)c1onc(-c2ccccc2Cl)c1C(=O)OC |  | inconclusive [inhibitor, single point] |
| C#CCCCO/N=C1/C[C@@H](O)[C@@H](O)[C@@H]2[C@@H]3C(=O)N([C@@H](C)c4ccccc4)C(=O)[C@H]3CC[C@@H]12 | inactive: 7.51% [at 13.5 µM] |  |
| CN1Cc2c(N)cccc2C(c2ccccc2)C1 (stereo not given) |  | inactive |
| Cc1ccc(S(=O)(=O)NCCOCCNS(=O)(=O)c2ccc(C)cc2)cc1 |  | active: 12.6 µM |
| Nc1cc(=O)[nH]c(SCC(=O)N2CCCc3ccccc32)n1 |  | inconclusive [inhibitor, single point] |
| CC1(C)CC(=O)C(C=NCC2CCN(C(=S)Nc3cccc(Cl)c3)CC2)=C(O)C1 |  | inconclusive [inhibitor, partial curve] |
| CCc1cc(C(=O)N2CCCC(CCC(=O)N3CCN(c4ccccn4)CC3)C2)no1 (stereo not given) |  | inconclusive [inhibitor, single point] |
| O=C(O)c1cc(-c2ccc(N3CCOCC3)cc2)nn1-c1ccccc1Cl |  | inconclusive [inhibitor, single point] |
